Test results taken from the supplement of paper PMC4466236.
Over roughly 33,000 sequences, “E-score (dimensionless, -0.5 to 0.5)” has its median near -0.058; the highest 2% begin near 0.35. The list shows a part of the results.

What follows are sequences tested on MvaT (assay: PBM 8-mer E-score (mean of HK and ME arrays) (E-score (dimensionless, -0.5 to 0.5)); higher = stronger relative binding preference; most listed sequences are background and not binding sites).
Description: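 Protein binding microarray: GST-tagged full-length MvaT (P. aeruginosa PAO1) bound to two universal double-stranded 60-mer arrays (ME and HK), each with a constant 25-mer primer and a variable 35-mer region covering all 8-mers. The 8-mer E-score (rank-based, range -0.5 to 0.5, >0.45 = specific binding) is the mean of the two arrays.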

Row | Sequence | PBM 8-mer E-score
1 | CGTGGAAC | -0.265
2 | ATTGTGGA | 0.145
3 | ACGTGAAC | 0.0465
4 | GACGGGGA | -0.109
5 | CGCGGGCC | -0.213
6 | CAGATGCC | -0.361
7 | CCATTCAG | -0.169
8 | CACTACAG | -0.15
9 | GGTAACCA | -0.156
10 | CGGAGTAC | -0.128
11 | ATGTAGTC | 0.1
12 | GCTTTGAA | 0.0627
13 | TGATCCCA | -0.0498
14 | CAAGGACC | -0.218
15 | ATCCTCCC | -0.223
16 | AGGCGGGG | -0.303
17 | CATTACCA | 0.187
18 | ACGTGTAA | 0.0481
19 | AAGCGCAG | -0.126
20 | ATTATTTA | 0.44
21 | ATATTCGA | 0.333
22 | TCTCTCCA | -0.0965
23 | TCCCAGAA | -0.123
24 | CCTTACTA | 0.0546
25 | ACACTGTA | 0.223

Row | Sequence | PBM 8-mer E-score
26 | CCCGAATC | -0.0385
27 | TCGCCTCA | -0.171
28 | GTATGCGA | 0.0803
29 | AGCGTACC | -0.279
30 | ACAGATAA | 0.287
31 | AATCAATC | 0.0516
32 | CTCCGTTA | -0.0492
33 | GATGTTAA | 0.277
34 | GGTCATAA | -0.00707
35 | ACGTCAAG | -0.0473
36 | AAGGCACA | -0.151
37 | ACCCACTA | 0.127
38 | TAGGGTAA | 0.133
39 | ACGTGAAA | 0.148
40 | CGCCATTC | -0.00284
41 | ATCATGAT | 0.08
42 | CCTCCCCC | -0.38
43 | CATCGAGG | -0.283
44 | AGTGCCCC | -0.194
45 | GTGCTCAA | -0.00452
46 | AGAAAGTA | 0.233
47 | GGCGCGAC | -0.109
48 | CCGTGCAC | -0.194
49 | AAATGCCA | -0.0338
50 | CCCCGGTA | -0.122

Row | Sequence | PBM 8-mer E-score
51 | CACCCCCC | -0.252
52 | AGTATCCG | 0.0304
53 | ATATCCGA | 0.164
54 | ACGGAGTC | -0.214
55 | AAAACAGC | 0.154
56 | GTCCGATA | -0.0596
57 | CACGGACC | -0.247
58 | AACCCTAG | -0.154
59 | TGTCGCAA | -0.0286
60 | GAATGAGC | -0.234
61 | GAGCTGGC | -0.277
62 | GAGGACGC | -0.293
63 | CCGTAGTC | -0.0927
64 | CGTCCAGC | -0.227
65 | GCATGAGC | -0.287
66 | ACACAGGA | -0.0572
67 | ATTGTGGC | 0.0278
68 | AAACGACC | -0.0897
69 | AAACCTCA | -0.109
70 | CACTTAGC | -0.0629
71 | ACTTGTGG | 0.032
72 | CCTGTTCA | -0.169
73 | AAATTTTC | 0.309
74 | CATGACTA | 0.0171
75 | AATTAATG | 0.359

Row | Sequence | PBM 8-mer E-score
76 | ACCTATCC | -0.0272
77 | AAGGATCG | -0.27
78 | CCCACAAG | -0.205
79 | CAAGGAGC | -0.364
80 | CCGTGTCA | -0.0576
81 | TCGACTAA | 0.0311
82 | ATTCCTGA | 0.156
83 | AAATGACA | 0.134
84 | CTGCTACA | -0.0832
85 | CGCGGAGA | -0.282
86 | CCGGGGCC | -0.331
87 | CCCCCCCC | -0.311
88 | TCGAGACA | -0.124
89 | CAAACTTC | 0.133
90 | AGGTACTA | 0.0259
91 | CCCTGGGC | -0.274
92 | ATCTCGAA | -0.0688
93 | ATTTCTGG | 0.0619
94 | GGAGGATA | -0.111
95 | CTGTGAGC | -0.0609
96 | AATGAGGT | 0.0347
97 | CCCTACAC | -0.212
98 | CGTCATCA | -0.134
99 | TACACGTA | 0.088
100 | CTAGTCTC | -0.0794

Row | Sequence | PBM 8-mer E-score
101 | ATAATAGC | 0.362
102 | CAACGCAC | -0.131
103 | GCTCCAAA | -0.0182
104 | ATTAATAA | 0.468
105 | ATCTCCGG | -0.188
106 | ATCCTATG | -0.143
107 | AACGAGCA | -0.0139
108 | AATCATGG | -0.0609
109 | ATTTAAGG | 0.101
110 | TGAGGGAA | -0.0751
111 | AACGTCTC | -0.222
112 | CTACGCTA | 0.0562
113 | AATAGTCA | 0.168
114 | AGCAGGCC | -0.328
115 | GGAGGCGA | -0.253
116 | AATCCTTG | 0.000406
117 | AAAGGCAT | -0.109
118 | AGCTGAGC | -0.262
119 | CTGCGATC | -0.323
120 | AATATCAC | 0.407
121 | AAGTCAAC | -0.0526
122 | CAGCGACC | -0.107
123 | AGTTCTCG | -0.0838
124 | ATTTGCTG | 0.187
125 | TCGCCAAA | -0.0154

Row | Sequence | PBM 8-mer E-score
126 | CCTCATTA | 0.0777
127 | ATCTTAAA | 0.243
128 | ACGGCTCT | -0.0273
129 | CAATAAGA | 0.238
130 | ATCCCCGA | -0.0832
131 | ATACTTCA | 0.226
132 | CAAGCGGA | -0.2
133 | GAGCCCCC | -0.295
134 | CCTTGCTA | -0.00222
135 | CTAGTGAG | -0.148
136 | CTTAACTA | 0.305
137 | ATCTTAAG | 0.197
138 | CGTCTGAC | -0.277
139 | TGTAACAA | 0.238
140 | CAGGTGGA | -0.338
141 | AATAGGGC | 0.0251
142 | ACTTTCAT | 0.262
143 | ATCAGAAA | 0.0788
144 | AACGCCCC | -0.342
145 | ATTCTCAG | 0.143
146 | TCTGCAAA | -0.0149
147 | AGAGCCTA | -0.135
148 | AGCGCCGA | -0.162
149 | GTACATAC | 0.135
150 | ATCACAAC | 0.0888

Row | Sequence | PBM 8-mer E-score
151 | CTCCTTTA | -0.0694
152 | ATGCTATA | 0.246
153 | AAGAAATA | 0.27
154 | GCAATAGA | 0.127
155 | AACACGTT | -0.0733
156 | GCTCCACA | -0.0692
157 | ACGAAAAG | 0.062
158 | CAACTGAC | 0.101
159 | GAAAAAGC | 0.0195
160 | AATGGGAA | -0.00976
161 | AACATGGC | 0.0422
162 | GGGGCACC | -0.313
163 | ATACAATG | 0.204
164 | CGGTGAAA | 0.0483
165 | AAGAAGAT | 0.115
166 | AAAGTAAA | 0.306
167 | CTTTTCCC | -0.0265
168 | ATGAGTAA | 0.14
169 | AGAAAGTG | 0.168
170 | ATTGCATC | -0.116
171 | GAAACTGA | 0.0684
172 | CCGACCTA | -0.209
